The record followed here is the supplement of paper PMC7125110.

First the molecules themselves.
B1: glmS ribozyme (parent)
chain: AUAAAAGCGCCAGAACUACAGAAAUGUAGUUGACGAGGAGGAGGUUUAUCGAAUUUUCGGCGGAUGCCUCCAAA

± gives the standard error. Variants at the floor of the assay are shown more often than the library holds them.

Settings in all cases: with glucosamine-6-phosphate
The variants in series [1] derive from B1. In words: self-cleavage kobs at 640 uM GlcN6P; higher = faster cleavage; RNA array. The gist of the method:
(§1)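 Glucosamine-6-phosphate in HEPES/KCl/Mg(OAc)2 buffer, at 40 μM to 10 mM, was flowed over barcoded ribozyme variants transcribed in situ by E. coli RNA polymerase on sequenced MiSeq chips. Tracking was through a hybridised Cy3 probe at 37 °C. kobs, kcat and KM came from exponential decay fits and weighted Michaelis–Menten fits of normalised per-tile medians.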

Variants of B1 are the subject of series [2]. In words: self-cleavage kobs at 2500 uM GlcN6P; higher = faster cleavage; RNA array. The gist of the method:
as §1

In series [3] the parent is B1. The series is described as follows: self-cleavage kobs at 160 uM GlcN6P; higher = faster cleavage; RNA array. The gist of the method: as §1
In series [4] the parent is B1. The series is described as follows: self-cleavage kobs at 10000 uM GlcN6P; higher = faster cleavage; RNA array. Summed up:
as §1

For the variant AUAAAAGCGACAGAACUACAGAAAUGUAGUUGACGAGGAGGAGUUUUUUCGAAUAUUCGGCGGAUGCCUCCAAA [C10A G44U A48U U55A], the “self-cleavage kobs at 640 uM GlcN6P” value in the series with glucosamine-6-phosphate [1] is less than 1e-05 s⁻¹. Also, the “self-cleavage kobs at 2500 uM GlcN6P” value with glucosamine-6-phosphate [2] was less than 1e-05 s⁻¹.
On to AUAAAAGCGGCAGAACUACAGAAAUGUAGUUGACGAGGAGGAGGUUUAUCGAAUUUUCGGCGGCUGCCUCCAAA [C10G A64C], for which the “self-cleavage kobs at 640 uM GlcN6P” value with glucosamine-6-phosphate [1] was less than 1e-05 s⁻¹.
Same read-out and setting: under AUAAAAGCGACAGAACUACAGAAAUGUAGUUGACGUGGAGGAGGUUUAUCGAAUUUUCGGCAGAUGCCUCCAAA [C10A A36U G62A] stands less than 1e-05 s⁻¹.
Turning to AUAAAAGCGGAAGGACUACAGAAAUGUACUUGACGAUGAGGAGGUUUAUCGAAUUUUCGGCGGAUGCCUCCAAA [C10G C11A A14G G29C G37U], in the series with glucosamine-6-phosphate [1], the “self-cleavage kobs at 640 uM GlcN6P” value was less than 1e-05 s⁻¹. For the same variant, in the series with glucosamine-6-phosphate [3], the “self-cleavage kobs at 160 uM GlcN6P” value was less than 1e-05 s⁻¹.
For AUAAAAGCUCCAGAACUACAGAAAUGUAGUAGACGAGGAGGAGGUUUAUCGAAUUUUCGGCGGGUGCCUCCAAA [G9U U31A A64G], the “self-cleavage kobs at 640 uM GlcN6P” value with glucosamine-6-phosphate [1] was less than 1e-05 s⁻¹. Further, in the series with glucosamine-6-phosphate [3], the “self-cleavage kobs at 160 uM GlcN6P” value was less than 1e-05 s⁻¹.
AUAAAAGCGACAGAACUACAGAAAUGUAGUUGACGAGGAGGAGGUAUAUCGAAUUGUCGGCGGAUGCCUCCAAA [C10A U46A U56G]: the “self-cleavage kobs at 640 uM GlcN6P” value with glucosamine-6-phosphate [1] was less than 1e-05 s⁻¹. Moreover, the “self-cleavage kobs at 160 uM GlcN6P” value in the series with glucosamine-6-phosphate [3] was less than 1e-05 s⁻¹. Moreover, the “self-cleavage kobs at 2500 uM GlcN6P” value in the series with glucosamine-6-phosphate [2] is less than 1e-05 s⁻¹.
For AUAAAAGCGACAGAACUACAGAAAUGUAGUUGACGAGGAGGACGUUUAUCGAAUUUUCGGCGGCUGCCUCCAAA [C10A G43C A64C], the “self-cleavage kobs at 640 uM GlcN6P” value with glucosamine-6-phosphate [1] is less than 1e-05 s⁻¹. In addition, the “self-cleavage kobs at 2500 uM GlcN6P” value in the series with glucosamine-6-phosphate [2] is less than 1e-05 s⁻¹.
With AUAAAAGCUCCAGAACUACAGAAAUGUAGUUGACGAGGAGGAGAUUUAUCGAAUUUUCGGCGGAUGCCUCCAAA [G9U G44A], the “self-cleavage kobs at 640 uM GlcN6P” value with glucosamine-6-phosphate [1] is less than 1e-05 s⁻¹. Besides, the “self-cleavage kobs at 160 uM GlcN6P” value with glucosamine-6-phosphate [3] was less than 1e-05 s⁻¹. Further, the “self-cleavage kobs at 2500 uM GlcN6P” value with glucosamine-6-phosphate [2] was less than 1e-05 s⁻¹. Besides, the “self-cleavage kobs at 10000 uM GlcN6P” value in the series with glucosamine-6-phosphate [4] was less than 1e-05 s⁻¹.
As for AUAAAAGCUCCAGAACUACAGAAAUGUAGUUGACGAGGAGGAGCUUUAUCGAAUUUUCGGCGGAUGCCUCCAAA [G9U G44C], the “self-cleavage kobs at 640 uM GlcN6P” value in the series with glucosamine-6-phosphate [1] was less than 1e-05 s⁻¹.
On to AUAAAAGCGACAGAACUACAGAAAUGUAGUUGACUAGGAGGAGGUUUAUCGAAUUUUCGGCGGAUGCCUCCAAA [C10A G35U], for which the “self-cleavage kobs at 640 uM GlcN6P” value in the series with glucosamine-6-phosphate [1] is less than 1e-05 s⁻¹. Further, the “self-cleavage kobs at 2500 uM GlcN6P” value in the series with glucosamine-6-phosphate [2] is less than 1e-05 s⁻¹.
For AUAAAAGCGACAGAACUACAGAAAUGUAGUUGACCAGGAGGAGGUUUAUCGAAUUUUCGGCGGAUGCCUCCAAA [C10A G35C], in the series with glucosamine-6-phosphate [1], the “self-cleavage kobs at 640 uM GlcN6P” value is less than 1e-05 s⁻¹. The “self-cleavage kobs at 10000 uM GlcN6P” value with glucosamine-6-phosphate [4] is less than 1e-05 s⁻¹.
Take AUAAAAGCUCCAGAACUACAGAAAUGUAGUUGACGAGGAGGAGGUUUAUCGAAUCUUCGGCUGAUGCCUCCAAA [G9U U55C G62U]: in the series with glucosamine-6-phosphate [1], the “self-cleavage kobs at 640 uM GlcN6P” value was less than 1e-05 s⁻¹.
On the same count and under the same terms, to AUAAAAGCGACAGAACUACAGAAAUGUAGUUGCCAAGGAGGAGGAUUAUCGAAUUUUCGGCGGAUGCCUCCAAA [C10A A33C G35A U45A] belongs less than 1e-05 s⁻¹.
AUAAAAGCUCCAGAACUACAGAAAUGUAGUUGACCAGGAGGAGGUUUAUCGAAUUUUCGGCGGAUGCCUCCAAA [G9U G35C]: the “self-cleavage kobs at 640 uM GlcN6P” value with glucosamine-6-phosphate [1] was less than 1e-05 s⁻¹. Further, in the series with glucosamine-6-phosphate [4], the “self-cleavage kobs at 10000 uM GlcN6P” value was less than 1e-05 s⁻¹.
As to AUAAAAGCGACAGAACUACAGAAAUGUAGUGGACGAGGAGGUGGUUUAUCGAAUUUUCGGCGGAUGCCUCCAAA [C10A U31G A42U], the “self-cleavage kobs at 640 uM GlcN6P” value in the series with glucosamine-6-phosphate [1] is less than 1e-05 s⁻¹. Further, the “self-cleavage kobs at 160 uM GlcN6P” value in the series with glucosamine-6-phosphate [3] is less than 1e-05 s⁻¹.
Regarding AUAAAAGCGACAGAACUACAGAAAUGUAGUUCACGAGGAGGAGGUUUAUCGAACUUUCGGCGGGUGCCUCCAAA [C10A G32C U54C A64G], the “self-cleavage kobs at 640 uM GlcN6P” value with glucosamine-6-phosphate [1] is less than 1e-05 s⁻¹. In the series with glucosamine-6-phosphate [2], the “self-cleavage kobs at 2500 uM GlcN6P” value was less than 1e-05 s⁻¹.
On to AUAAAAGCGACAGAACUACAGAAAUGUAGUUGACGAGGAGGAGGUUUAUCGAAUUUUCGGCGGAUGCCACCAAA [C10A U69A], for which the “self-cleavage kobs at 640 uM GlcN6P” value in the series with glucosamine-6-phosphate [1] stood at 0.00013 ± 1.9e-05 s⁻¹. In the series with glucosamine-6-phosphate [2], the “self-cleavage kobs at 2500 uM GlcN6P” value was 3.89e-05 ± 1.5e-05 s⁻¹.
As for AUAAAAGCUCCAGAACUACAGAAAUGUAGUUGACGAGGAGGAGGUUUAUCUAAUUUUCGGCGGAUGCCUCUAAA [G9U G51U C71U], in the series with glucosamine-6-phosphate [1], the “self-cleavage kobs at 640 uM GlcN6P” value is less than 1e-05 s⁻¹.
Regarding AUAAAAGCUCCAGAACUACAGAAAUGUAGUUGACGAGGAUGAGGUGUAUCGAAUUUUCGGCCGAUGCCUCCAAA [G9U G40U U46G G62C], the “self-cleavage kobs at 640 uM GlcN6P” value with glucosamine-6-phosphate [1] was less than 1e-05 s⁻¹. Further, the “self-cleavage kobs at 160 uM GlcN6P” value with glucosamine-6-phosphate [3] is less than 1e-05 s⁻¹.
Take AUAAAAGCGACAGAACUACAGAAAUGUAGUUGACGAGGAGGAGGUUUCUCGAAUUCUCGGCGGAUGCCUCCAAA [C10A A48C U56C]: the “self-cleavage kobs at 640 uM GlcN6P” value with glucosamine-6-phosphate [1] is less than 1e-05 s⁻¹. In addition, in the series with glucosamine-6-phosphate [3], the “self-cleavage kobs at 160 uM GlcN6P” value was less than 1e-05 s⁻¹.
